# From the supplement of paper PMC8728848
# The list shows a part of the results.
# B1: BC2L-D C-terminal domain (Burkholderia cenocepacia), Q39MQ9_BURS3 (protein)
# chain: LVIVDAVTLLSAYPEASRDPAAPTVIDGRHLYVVSPGDAAQLGHNDSRLFTGLSPGDQLHLRETALALRAEVSVLFIRFALKDAGIVAPIELEVRDAATAVPDADDLLHPSCRPLKDHYWRSDVLAAGATTCTADFAVCDRDGTVSGYFRWETSIEIAGSQPDTKQPGFKPSSDRNGNFSLPPNTAFKAIFYANAADRQDLKLFIDDAPEPAATFVGNSEDGVRLFTLNSKGGKIRIEASANGRQSATDARLAPLSAGDTVWLGWLGAEDGADADYNDGIVILQWPIT
# How the values were obtained:
# Test in all cases: glycan array binding signal (z-score within array); higher = stronger binding
# Details in all cases: glycan notation: IUPAC condensed, linker removed
# [1] = target: Neu5Ac(a2-3)Gal(b1-3)[Fuc(a1-4)]GlcNAc(b1-3)Gal(b1-4)[Fuc(a1-3)]GlcNAc
# Outline: (§1)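 Arrays were curated from the Consortium for Functional Glycomics database, 3228 in total, and kept only where the protein sequence was available. Binding is expressed as a within-array Z-score. This score was averaged across arrays of the same protein sequence at different concentrations or buffers and across linkers, and negative values can be read as non-binding.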
# [2] = target: Neu5Ac(a2-3)Gal(b1-3)[Neu5Ac(a2-3)Gal(b1-4)]GlcNAc
# Outline: as §1
# [3] = target: Neu5Ac(a2-3)Gal(b1-3)[Neu5Ac(a2-6)]GalNAc
# Outline: as §1
# [4] = target: Neu5Ac(a2-3)Gal(b1-4)Glc
# Outline: as §1
# [5] = target: Neu5Ac(a2-3)Gal(b1-4)GlcNAc
# Outline: as §1
# [6] = target: Neu5Ac(a2-3)Gal(b1-4)GlcNAc(b1-2)Man(a1-3)[GlcNAc(b1-2)Man(b1-4)GlcNAc(b1-2)Man(a1-6)]Man(b1-4)GlcNAc(b1-4)GlcNAc
# Outline: as §1
# [7] = target: Neu5Ac(a2-3)Gal(b1-4)GlcNAc(b1-2)Man(a1-3)[Neu5Ac(a2-6)Gal(b1-4)GlcNAc(b1-2)Man(a1-6)]Man(b1-4)GlcNAc(b1-4)GlcNAc
# Outline: as §1
# [8] = target: Neu5Ac(a2-3)Gal(b1-4)GlcNAc(b1-3)Gal
# Outline: as §1
# [9] = target: Neu5Ac(a2-3)Gal(b1-4)GlcNAc(b1-3)Gal(b1-3)GlcNAc
# Outline: as §1
# [10] = target: Neu5Ac(a2-3)Gal(b1-4)GlcNAc(b1-3)Gal(b1-4)GlcNAc
# Outline: as §1
# [11] = target: Neu5Ac(a2-3)Gal(b1-4)GlcNAc(b1-3)Gal(b1-4)GlcNAc(b1-3)Gal(b1-4)GlcNAc
# Outline: as §1
# [12] = target: Neu5Ac(a2-3)Gal(b1-4)GlcNAc(b1-3)Gal(b1-4)[Fuc(a1-3)]GlcNAc
# Outline: as §1
# [13] = target: Neu5Ac(a2-3)Gal(b1-4)GlcNAc(b1-3)GalNAc
# Outline: as §1
# [14] = target: Neu5Ac(a2-3)Gal(b1-4)GlcNAc(b1-6)[Gal(b1-3)]GalNAc
# Outline: as §1
# [15] = target: Neu5Ac(a2-3)Gal(b1-4)GlcNAc(b1-6)[Neu5Ac(a2-3)Gal(b1-3)]GalNAc
# Outline: as §1
# [16] = target: Neu5Ac(a2-3)Gal(b1-4)GlcNAc6S
# Outline: as §1
# [17] = target: Neu5Ac(a2-3)Gal(b1-4)[Fuc(a1-3)]GlcNAc
# Outline: as §1
# [18] = target: Neu5Ac(a2-3)Gal(b1-4)[Fuc(a1-3)]GlcNAc(b1-3)Gal
# Outline: as §1
# [19] = target: Neu5Ac(a2-3)Gal(b1-4)[Fuc(a1-3)]GlcNAc(b1-3)Gal(b1-4)GlcNAc
# Outline: as §1
# [20] = target: Neu5Ac(a2-3)Gal(b1-4)[Fuc(a1-3)]GlcNAc(b1-3)Gal(b1-4)[Fuc(a1-3)]GlcNAc(b1-3)Gal(b1-4)[Fuc(a1-3)]GlcNAc
# Outline: as §1
# [21] = target: Neu5Ac(a2-3)Gal(b1-4)[Fuc(a1-3)]GlcNAc(b1-3)GalNAc
# Outline: as §1
# [22] = target: Neu5Ac(a2-3)Gal(b1-4)[Fuc(a1-3)]GlcNAc(b1-6)[Gal(b1-3)]GalNAc
# Outline: as §1
# [23] = target: Neu5Ac(a2-3)Gal(b1-4)[Fuc(a1-3)]GlcNAc(b1-6)[Neu5Ac(a2-3)Gal(b1-3)]GalNAc
# Outline: as §1
# [24] = target: Neu5Ac(a2-3)Gal(b1-4)[Fuc(a1-3)]GlcNAc6S
# Outline: as §1
# [25] = target: Neu5Ac(a2-3)Gal6S(b1-4)GlcNAc
# Outline: as §1
# [26] = target: Neu5Ac(a2-3)Gal6S(b1-4)[Fuc(a1-3)]GlcNAc
# Outline: as §1
# [27] = target: Neu5Ac(a2-3)GalNAc
# Outline: as §1
# [28] = target: Neu5Ac(a2-3)GalNAc(b1-4)GlcNAc
# Outline: as §1
# [29] = target: Neu5Ac(a2-3)[GalNAc(b1-4)]Gal(b1-4)Glc
# Outline: as §1
# [30] = target: Neu5Ac(a2-3)[GalNAc(b1-4)]Gal(b1-4)GlcNAc
# Outline: as §1
# [31] = target: Neu5Ac(a2-3)[GalNAc(b1-4)]Gal(b1-4)GlcNAc(b1-3)GalNAc
# Outline: as §1
# [32] = target: Neu5Ac(a2-3)[Neu5Ac(a2-6)]GalNAc
# Outline: as §1
# [33] = target: Neu5Ac(a2-6)Gal
# Outline: as §1
# [34] = target: Neu5Ac(a2-6)Gal(b1-3)GlcNAc(b1-3)[Gal(b1-4)GlcNAc(b1-6)]Gal(b1-4)Glc
# Outline: as §1
# [35] = target: Neu5Ac(a2-6)Gal(b1-4)Glc
# Outline: as §1
# [36] = target: Neu5Ac(a2-6)Gal(b1-4)GlcNAc
# Outline: as §1
# [37] = target: Neu5Ac(a2-6)Gal(b1-4)GlcNAc(b1-2)Man(a1-3)Man(b1-4)GlcNAc(b1-4)GlcNAc
# Outline: as §1
# [38] = target: Neu5Ac(a2-6)Gal(b1-4)GlcNAc(b1-2)Man(a1-3)[Gal(b1-4)GlcNAc(b1-2)Man(a1-6)]Man(b1-4)GlcNAc(b1-4)GlcNAc
# Outline: as §1
# [39] = target: Neu5Ac(a2-6)Gal(b1-4)GlcNAc(b1-2)Man(a1-3)[GlcNAc(b1-2)Man(a1-6)]Man(b1-4)GlcNAc(b1-4)GlcNAc
# Outline: as §1
binder,measurement,setting,value
B1,glycan array binding signal (z-score),[1],0.621
same,glycan array binding signal (z-score),[2],-0.242
same,glycan array binding signal (z-score),[3],-0.197
same,glycan array binding signal (z-score),[4],-0.248
same,glycan array binding signal (z-score),[5],-0.242
same,glycan array binding signal (z-score),[6],-0.245
same,glycan array binding signal (z-score),[7],-0.238
same,glycan array binding signal (z-score),[8],-0.158
same,glycan array binding signal (z-score),[9],-0.246
same,glycan array binding signal (z-score),[10],-0.242
same,glycan array binding signal (z-score),[11],-0.244
same,glycan array binding signal (z-score),[12],-0.241
same,glycan array binding signal (z-score),[13],-0.242
same,glycan array binding signal (z-score),[14],-0.243
same,glycan array binding signal (z-score),[15],-0.244
same,glycan array binding signal (z-score),[16],-0.244
same,glycan array binding signal (z-score),[17],-0.215
same,glycan array binding signal (z-score),[18],-0.22
same,glycan array binding signal (z-score),[19],-0.172
same,glycan array binding signal (z-score),[20],0.036
same,glycan array binding signal (z-score),[21],-0.175
same,glycan array binding signal (z-score),[22],-0.232
same,glycan array binding signal (z-score),[23],-0.251
same,glycan array binding signal (z-score),[24],-0.244
same,glycan array binding signal (z-score),[25],-0.241
same,glycan array binding signal (z-score),[26],-0.242
same,glycan array binding signal (z-score),[27],-0.243
same,glycan array binding signal (z-score),[28],-0.246
same,glycan array binding signal (z-score),[29],-0.243
same,glycan array binding signal (z-score),[30],-0.233
same,glycan array binding signal (z-score),[31],-0.171
same,glycan array binding signal (z-score),[32],-0.24
same,glycan array binding signal (z-score),[33],-0.246
same,glycan array binding signal (z-score),[34],-0.167
same,glycan array binding signal (z-score),[35],-0.242
same,glycan array binding signal (z-score),[36],-0.248
same,glycan array binding signal (z-score),[37],-0.244
same,glycan array binding signal (z-score),[38],-0.241
same,glycan array binding signal (z-score),[39],-0.218
